# The whole screen tested about 360,000 compounds, of which about 17,000 (4.7%) were called active. Inconclusive results, whose numbers are uncertain, are shown with a selection of clear calls. No stated cut-off is given here; in the data, active means activity change below about -50%; inconclusive means mostly about -30% to -49%; inactive means weaker than that.
# Experiment: qHTS for Inhibitors of Inflammasome Signaling: IL-1-beta AlphaLISA Primary Screen
# Settings: THP-1 LPS/ATP IL-1B secretion, 16 h; at 57.5 µM, active compounds read low
# Method in brief: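 THP-1 cells pretreated 1 hr with compounds (up to 57.5 uM final), then stimulated with LPS (250 ng/mL final) plus ATP (1.25 mM final); secreted IL-1B measured by AlphaLISA after 16 hr, decreased signal indicating inhibition.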
# On the % scale 0 is the no-effect control and ±100 the full control effect.
row,SMILES,activity change
1,Cc1cc2nc(CCN(Cc3cccnc3)C(=S)Nc3ccc(F)cc3)[nH]c2cc1C,inconclusive: -36.6%
2,COc1cc(/C=C2/SC(=Nc3ccc(O)cc3)NC2=O)ccc1O,inconclusive: -41.8%
3,COc1ccc(CC(=O)Nc2nc(-c3ccccc3)c(C(C)=O)s2)cc1OC,inconclusive: -41.2%
4,CSCCC(N=C(NS(=O)(=O)c1ccc(C)cc1)c1ccccc1)C(=O)O (stereo unspecified),inactive: -6.78%
5,COc1ccc(CNC(=O)C(C)n2ccc3cc(S(=O)(=O)N4CCCCCC4)ccc32)cc1 (stereo unspecified),inconclusive: -31.9%
6,Cc1ccccc1NC(=S)N1CCN(Cc2ccccc2)CC1,inconclusive: -30.5%
7,COc1ccc(-n2nnnc2CNC(=O)c2ccc3ccccc3c2)cc1,inconclusive: -35.7%
8,CC(=O)NC(c1cccc(F)c1)c1nc(-c2cccs2)cs1 (stereo unspecified),inconclusive: -43%
9,CCOc1ccc(N(CC(=O)NC2CCCCC2)C(=O)Cn2nnc(-c3ccc(C)o3)n2)cc1,inactive: 2.76%
10,COc1ccc(NC(=O)Nc2ccccn2)cc1OC,inconclusive: -32.4%
11,O=C(CCN1C(=O)COc2ccccc21)NCCN1CCN(c2cccc(Cl)c2)CC1,inconclusive: -37.2%
12,CC(C)C[C@H]1CN=C(N(C)C)N1CCc1cccc(F)c1,inactive: -15.3%
13,CCN(CC)CCNC(=O)c1ccc2c(=O)n(C3CCCC3)c(=S)[nH]c2c1,inactive: 5.63%
14,CC(C)OC(=O)c1cccc(C(=O)OCc2ccco2)n1,active: -73.8%
15,CCC(C)Nc1nnnc2c1sc1nc3c(cc12)COC(C)(C)C3 (stereo unspecified),inconclusive: -48%
16,CC(OC(=O)[C@@H](NC(=O)c1ccco1)C(C)C)C(=O)Nc1ncc(Cl)cc1Cl (stereo partly specified),inactive: 73.9%
17,CCN(CC)c1ccc(/C=C(\C#N)C(=O)NCc2ccccc2)cc1,inconclusive: -32.4%
18,COc1ccccc1Nc1ncnc2c1c(C)c(C)n2CCCN(C)C,inconclusive: -36.7%
19,CC(O)(c1cccc(F)c1)c1nc(-c2ccc3c(c2)OCO3)cs1 (stereo unspecified),inactive: 16%
20,O=C(NNC1=Nc2cccc3cccc1c23)c1ccccc1Br,inconclusive: -35.5%
21,O=C(CC1C[C@H](C(=O)N2CCCCC2)[C@@]2(CCc3ccccc3)c3[nH]c4ccccc4c3CCN2C1=O)NCCc1ccccn1 (stereo partly specified),inconclusive: -45.4%
22,CCc1sc(C(=O)Nc2ccc3c(c2)OCO3)cc1C,active: -80.3%

row,SMILES,activity change
1,Cc1cc(O)cc2c1C(=O)/C(=C/c1ccco1)O2,inactive: 1.54%
2,CCN1CCN(c2nc3c(C)cccn3c(=O)c2/C=C(\C#N)S(=O)(=O)c2ccc(Cl)cc2)CC1,inactive: -21%
3,O=C1NC[C@H](CCCCN2C[C@H](Cc3ccc(O)cc3)N(CCc3ccccc3)C(=O)C2=O)N(CCC2CCCCC2)C1=O,inactive: -9.1%
4,CCCCn1c2c(c(=N)c3ccccc31)CCC2,inactive: -2.2%
5,Cc1ccc(S(=O)(=O)N2CCC[C@H]2C(=O)OCC(=O)N2CCc3ccccc32)cc1,inactive: -6.5%
6,Cc1csc(NC(=O)Cc2coc3cc(C)c(C(C)C)cc23)n1,inconclusive: -38.8%
7,Cc1ccc(Nc2ncc3c(n2)CC(C)(C)CC3=O)cc1,inconclusive: -31.2%
8,CCc1nc2ccc(C(=O)NCc3ccccc3OC)cn2c1N(C)Cc1ccc(OC)cc1,active: -51.6%
9,Cc1cccc(C)c1NC(=O)c1ccc(N2CCCC2=O)cc1,inconclusive: -46.5%
10,CN(Cc1ccccc1)C(=O)CN1C(=O)NC(C)(c2ccc(Cl)cc2)C1=O (stereo unspecified),inconclusive: -39.3%
11,Cc1ccc(-n2c(C)cc(/C([O-])=C(/C(=S)Nc3ccc(F)c(Cl)c3)[n+]3ccccc3)c2C)cc1,inconclusive: -34%
12,C[C@@H]1CCCCO[C@H](CN(C)Cc2ccc(Cl)c(Cl)c2)[C@@H](C)CN([C@H](C)CO)C(=O)c2cc(N(C)C)ccc2O1,inconclusive: -32.1%
13,CN1CCN(C(=O)C23CC4CC(C2)CC(c2ccccc2)(C4)C3)CC1,active: -53.4%
14,CC(C)CN(C(=O)c1ccc(N2CCCC2=O)cc1)c1c(N)n(Cc2ccccc2)c(=O)[nH]c1=O,inactive: -5.97%
15,CC(=O)/C(=N\Nc1ccc(Cl)cc1Cl)Sc1cccc2cccnc12,active: -103%
16,N#Cc1ccc(CSc2nnc(-c3c[nH]c4ccccc34)n2-c2ccccc2)cc1,active: -67.1%
17,COc1ccc(-n2nc3c(N4CCC(C(=O)NCC(C)c5ccccc5)CC4)nnc(C)c3c2C)cc1 (stereo unspecified),active: -95.5%
18,O=S(=O)(c1ccc(Cl)cc1)N1CCN(C(=S)Nc2ccc(F)c(Cl)c2)CC1,inconclusive: -35.3%
19,COc1cc(NC(=O)[C@@H](NC(=O)N2CCn3c2nc2ccccc23)C(C)C)cc(OC)c1,inconclusive: -40.8%
20,COC(=O)c1ccccc1NC(=O)CCn1c(=O)oc2ccccc21,inactive: -11.5%
21,COc1ccccc1C(C(=O)NC1CCCC1)N(C(=O)c1csnn1)C1CC1 (stereo unspecified),inconclusive: -38.3%
22,O=C(N/N=C/c1ccc[nH]1)c1ccccc1OCc1ccccc1Cl,active: -90.2%

row,SMILES,activity change
1,Cc1cccc2cc(CN(CCCO)C(=O)Nc3ccc(Cl)cc3)c(=O)[nH]c12,inconclusive: -40.5%
2,COC(=O)c1cc(OC)c(OC)cc1NCC(=O)Nc1ccc(C)cc1,active: -52.1%
3,Cc1cc(NC(=O)C2CCCCC2)n(-c2nc3ccccc3[nH]2)n1,inactive: -22.4%
4,CCOC(=O)c1c(C2CC2)csc1NC(=O)COC(=O)c1cc(OC)c(OC)cc1[N+](=O)[O-],inactive: 28%
5,COc1cc(OC)cc(C(=O)Nc2cccc(N3CCCC3)c2)c1,inactive: -4.12%
6,COc1ccc(OCC(=O)Nc2ccc(N3CCN(C(=O)c4ccccc4C)CC3)cc2)cc1,inactive: -22.1%
7,CCSc1nnc(NC(=O)C(CC)(C(F)(F)F)C(F)(F)F)s1,inactive: -18.8%
8,CC1C2Cn3c(nc4ccccc43)C1N(C(C)C)O2 (stereo unspecified),inactive: 22.9%
9,CCSCC(C)(C)n1[nH]c2ccccc2c1=O,inactive: 18.3%
10,N=c1n(CCc2ccccc2)c2ccccc2n1Cc1ccccc1F,active: -81.4%
11,CCCn1c(N)c(C(=O)COC(=O)CNC(=O)c2ccccc2OCC)c(=O)[nH]c1=O,inconclusive: -34.6%
12,Cc1ccc(NC(=O)c2ccc(S(=O)(=O)NCc3ccco3)cc2)cc1,inactive: -10.4%
13,CCCc1cc(NC(=O)COC(=O)c2ccc(O)cc2O)n(-c2ccccc2)n1,inactive: 26.8%
14,CCCC[C@@H](CN[C@H](C)CNC)NCC1CCC(C(C)(C)C)CC1 (stereo partly specified),active: -67%
15,Cc1ccc(S(=O)(=O)N2CCN(c3ccccc3)CC2)cc1C(=O)NC1CCCCC1,inconclusive: -34%
16,CN(Cc1c(F)cccc1Cl)C(=O)COC(=O)Cn1cnc2ccccc2c1=O,inactive: 12.8%
17,COc1ccc(C(=O)Nc2nncs2)c(OC)c1,inconclusive: -34.6%
18,C=CCNCCOc1c(C)cc(C)cc1Cl,inactive: 12.2%
19,Fc1ccccc1CSc1nnc(-c2cnccn2)n1Cc1ccco1,inconclusive: -31%
20,CCCn1c(N2CCN(C(=O)Nc3ccc(Cl)cc3)CC2)nc2ccccc21,inconclusive: -44.1%
21,CC(Nc1ccc(Br)cc1)C(=O)N/N=C/c1ccccc1OCc1ccccc1 (stereo unspecified),inconclusive: -32.6%
22,Cc1ccc2c(c1)NC(=O)[C@@]1(C)[C@@H](c3ccccc3)[C@H]3COc4ccccc4[C@@H]3N1C2=O,inconclusive: -36.9%

row,SMILES,activity change
1,CC(C)n1c(SCC(=O)Nc2nc3ccccc3s2)nc2c1c(=O)n(C)c(=O)n2C,active: -52.1%
2,CCOC(=O)CSC1=C(C#N)C(c2ccccc2)C(C(C)=O)=C(C)N1 (stereo unspecified),inconclusive: -41.2%
3,COc1ccc(-c2nc(-c3ccccn3)nc(N3CCN(C)CC3)c2C#N)cc1,inconclusive: -49.6%
4,COc1ccc(-c2nc(CS(=O)CC(=O)NCc3ccc(Cl)cc3)c(C)o2)cc1OC (stereo unspecified),inactive: -21.8%
5,Cc1ccc(CONC(=O)c2ccc(Cl)cc2)cc1,inconclusive: -31.1%
6,Cn1c(=O)c2cc(NC(=O)NCc3ccc(Cl)cc3Cl)ccc2n1Cc1ccccc1,active: -59.9%
7,O=C(N/N=C/c1cccnc1)c1cc(-c2ccc(Br)cc2)nc2ccccc12,inconclusive: -38.7%
8,c1ccc(-n2ncc3c(NC4CCCCCC4)ncnc32)cc1,active: -53.3%
9,COC(=O)c1cccc(NC(=S)Nc2ccc(Cl)c(Cl)c2)c1,active: -64.8%
10,Cc1ccc(S(=O)(=O)c2nc(S(C)(=O)=O)sc2N2CC(C)OC(C)C2)cc1 (stereo unspecified),inconclusive: -30.3%
11,COc1ccc(-n2c(COc3ccccc3)nnc2SCc2ccc(C#N)cc2)cc1,inconclusive: -42.3%
12,CCCC[C@@H](CNC)NC[C@H](NCCCCC1CCCCC1)C(C)C,inconclusive: -39.6%
13,CSc1cccc(NC(=O)C2CCN(S(=O)(=O)c3ccc4c(c3)NC(=O)CO4)CC2)c1,inconclusive: -45.7%
14,O=C(O)c1ccccc1SCC(=O)N1c2ccccc2Sc2ccccc21,inactive: 16.1%
15,CS(=O)(=O)c1sc2nc(-c3ccccc3)cc(-c3ccccc3)c2c1N,active: -67.8%
16,CC(=O)Nc1cccc(NC(=O)Nc2ccc(F)cc2F)c1,inactive: 8.7%
17,Clc1ccc(OCCSc2ncccn2)c(Br)c1,inactive: -12.2%
18,C/C(=N\OCc1ccccc1C#N)c1cc2ccccc2o1,inconclusive: -30.6%
19,O=C(Nc1ccc(Cl)cc1)c1cc(S(=O)(=O)Nc2ccccn2)ccc1Cl,inactive: 24.7%
20,O=C(Nc1cccc(S(=O)(=O)N2CCCCC2)c1)c1cncc(Br)c1,inconclusive: -40.2%
